The BET-seq Pho4 binding data (Le et al. 2018)
The other results are listed elsewhere or left out. The energies were worked out here from pooled read counts, against the library average; single values are noisy.

Each sequence was assayed against T1, Pho4 (S. cerevisiae) (UniProt P07270) (assay: relative binding free energy (BET-seq); higher = weaker binding). Details: reference: library average.
T1 sequence: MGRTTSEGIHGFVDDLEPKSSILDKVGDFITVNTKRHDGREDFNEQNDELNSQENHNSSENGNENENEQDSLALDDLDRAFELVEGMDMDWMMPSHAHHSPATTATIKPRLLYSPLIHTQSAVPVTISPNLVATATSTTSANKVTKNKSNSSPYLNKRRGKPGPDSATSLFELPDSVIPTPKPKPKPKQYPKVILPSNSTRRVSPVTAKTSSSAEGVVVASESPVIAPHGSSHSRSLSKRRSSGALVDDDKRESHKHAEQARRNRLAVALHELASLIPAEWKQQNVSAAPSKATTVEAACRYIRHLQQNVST

Sequence | relative binding free energy
GGGGCCACGTGAGTTG | 0.15 kcal/mol
CGTGTCACGTGGGCTG | -0.06 kcal/mol
TCGAACACGTGGGGGT | -0.08 kcal/mol
GGGTGCACGTGCGCTT | -0.24 kcal/mol
TGACACACGTGGGGTT | -0.12 kcal/mol
GGAGGCACGTGACGTT | 0.13 kcal/mol
GGCATCACGTGGTTGG | 0.14 kcal/mol
AATGTCACGTGAGCTG | 0.32 kcal/mol
TTATTCACGTGGGCAT | 0.1 kcal/mol
TTAAGCACGTGTAGCT | 0.04 kcal/mol
GGTGACACGTGGTCTG | 0.04 kcal/mol
GCAGGCACGTGTAGAG | 0.03 kcal/mol
TTCTGCACGTGTATCG | 0.08 kcal/mol
GGGTGCACGTGTAATG | 0.13 kcal/mol
GTATTCACGTGAACGT | 0.25 kcal/mol
TGACTCACGTGGATTG | 0.25 kcal/mol
TTGTACACGTGTATAC | 0.22 kcal/mol
AGGCACACGTGGGAGG | -0.14 kcal/mol
AATCGCACGTGATTTG | 0.15 kcal/mol
ATGTACACGTGTGTCG | 0.05 kcal/mol
AGGGGCACGTGCAAGT | -0.29 kcal/mol
GGATACACGTGCTGGT | 0.11 kcal/mol
AGTAGCACGTGGGGTC | -0.22 kcal/mol
AGTAACACGTGTAGGG | 0.18 kcal/mol
TAGTACACGTGGTGAG | -0.05 kcal/mol

Sequence | relative binding free energy
ATGTACACGTGTTAAT | 0.12 kcal/mol
TGAGTCACGTGAGAGA | 0.32 kcal/mol
AATGTCACGTGGGAGA | 0.03 kcal/mol
TGGGGCACGTGGCGTA | -0.29 kcal/mol
ATATGCACGTGTCGGG | -0.16 kcal/mol
GGATTCACGTGTGACG | 0.25 kcal/mol
GGGAGCACGTGTATGG | 0 kcal/mol
AAAGTCACGTGTCTTG | 0.2 kcal/mol
TAGGGCACGTGGAGAG | -0.09 kcal/mol
GGGAGCACGTGTTAGC | -0.08 kcal/mol
GTGATCACGTGATGTG | 0.25 kcal/mol
GTACCCACGTGGTGGG | -0.05 kcal/mol
AGGATCACGTGATTTT | 0.29 kcal/mol
CAGTACACGTGTGGTA | 0.1 kcal/mol
TACGGCACGTGTTTCT | 0.13 kcal/mol
GGTGGCACGTGCGTGG | -0.11 kcal/mol
TTTTACACGTGGACTG | 0.22 kcal/mol
TTAGGCACGTGACGCT | 0 kcal/mol
CCGTGCACGTGTGTGG | -0.21 kcal/mol
TAAGTCACGTGCGGGT | 0.1 kcal/mol
GGTAACACGTGGGTCG | -0.17 kcal/mol
TTTATCACGTGTAAGC | 0.29 kcal/mol
TATCGCACGTGTATGG | -0.08 kcal/mol
GGCGTCACGTGTGTCT | 0.12 kcal/mol
TTGTACACGTGGTGTG | 0 kcal/mol

Sequence | relative binding free energy
TAATCCACGTGGTGGG | -0.12 kcal/mol
CGTTTCACGTGTGGGA | 0.2 kcal/mol
CTGGCCACGTGTGGGA | 0 kcal/mol
CTGAACACGTGGGTGT | 0.03 kcal/mol
GTTAGCACGTGGATCG | -0.07 kcal/mol
TGGGACACGTGATTGG | 0.21 kcal/mol
GGTGTCACGTGTTCGG | 0.1 kcal/mol
CTTATCACGTGATGGT | 0.33 kcal/mol
AGGGTCACGTGCATTT | 0.05 kcal/mol
TAGTTCACGTGTCAGT | 0.21 kcal/mol
TGAGGCACGTGTGTCA | 0.11 kcal/mol
TCGTGCACGTGGTTTG | -0.07 kcal/mol
TTTGTCACGTGGCATG | 0.05 kcal/mol
GCTGTCACGTGATGGT | 0.27 kcal/mol
GTGATCACGTGGTGCT | 0.16 kcal/mol
GATTGCACGTGCAGGT | -0.02 kcal/mol
GTCGCCACGTGGTGGT | -0.06 kcal/mol
GTTATCACGTGTAACT | 0.29 kcal/mol
GGCGGCACGTGGTGAT | 0.01 kcal/mol
ATTGACACGTGGGATT | -0.14 kcal/mol
ATTGCCACGTGTAGGA | 0.05 kcal/mol
ACGTTCACGTGTTTAT | 0.25 kcal/mol
AGTGTCACGTGAGCGG | 0.13 kcal/mol
GGTCACACGTGGGGTC | 0.12 kcal/mol
CTGGGCACGTGTTGTA | 0 kcal/mol

Sequence | relative binding free energy
ATGTACACGTGTTTTA | 0.06 kcal/mol
GTGTGCACGTGTTGAA | 0.02 kcal/mol
GAGGGCACGTGTGTAT | -0.12 kcal/mol
AGTTTCACGTGGATGA | 0.25 kcal/mol
AGGAGCACGTGAGTTA | 0.22 kcal/mol
TGCGTCACGTGCTGAT | 0.17 kcal/mol
CATTTCACGTGTTCTG | 0.41 kcal/mol
CTCGACACGTGAGGGT | 0.22 kcal/mol
TATTTCACGTGGTATT | 0.28 kcal/mol
CTTATCACGTGTTGTA | 0.15 kcal/mol
ATTTTCACGTGCAGTT | 0.31 kcal/mol
GTAACCACGTGGGTGG | -0.22 kcal/mol
TGTTTCACGTGTGGAA | 0.27 kcal/mol
GATAACACGTGTTTGA | 0.07 kcal/mol
ACGTGCACGTGAGTTG | 0.07 kcal/mol
AAGGTCACGTGAAAGG | 0.32 kcal/mol
GTTTACACGTGTCCGG | 0.27 kcal/mol
ACGGGCACGTGAATTG | 0.19 kcal/mol
TTATACACGTGAAATT | 0.29 kcal/mol
CTTATCACGTGGGATT | 0.02 kcal/mol
TACGTCACGTGATAGT | 0.28 kcal/mol
TTGTTCACGTGACGTG | 0.41 kcal/mol
GATGTCACGTGTCGAG | 0.22 kcal/mol
AGTGTCACGTGTTAAT | 0.06 kcal/mol
GTTAGCACGTGGAGAT | 0.05 kcal/mol

Sequence | relative binding free energy
TTTTTCACGTGTAAGC | 0.29 kcal/mol
GTGTACACGTGGGCTT | 0.01 kcal/mol
TAGGGCACGTGTAAAT | -0.02 kcal/mol
ACTAGCACGTGGGTTT | -0.15 kcal/mol
TCTTTCACGTGCTTGG | 0.31 kcal/mol
GTAGTCACGTGTGATA | 0.15 kcal/mol
TATTTCACGTGTAACT | 0.33 kcal/mol
TGTTTCACGTGGCTTT | 0.12 kcal/mol
GGTTGCACGTGGGGAG | -0.05 kcal/mol
AGTGGCACGTGCTGTT | -0.28 kcal/mol
TTCGACACGTGGGGAT | 0.08 kcal/mol
CTTAGCACGTGTTCGG | -0.16 kcal/mol
CGGGACACGTGATAGG | 0.18 kcal/mol
TAGTGCACGTGCTTGG | -0.16 kcal/mol
TGTCACACGTGGAGAG | 0.11 kcal/mol
TTCCTCACGTGAGTTG | 0.37 kcal/mol
CGTATCACGTGGTGGT | -0.02 kcal/mol
GGTTACACGTGACTGT | 0.19 kcal/mol
CTAGTCACGTGTATGG | -0.06 kcal/mol
AATTGCACGTGGGACT | 0.02 kcal/mol
CTTCTCACGTGTGGTG | 0.17 kcal/mol
TCGATCACGTGGTTAA | 0.16 kcal/mol
GGATGCACGTGTTGTT | 0.09 kcal/mol
GAGGGCACGTGATTAT | 0.05 kcal/mol
TTATTCACGTGTGTCA | 0.36 kcal/mol

Sequence | relative binding free energy
TAATTCACGTGAGGCT | 0.35 kcal/mol
CGGTACACGTGGGGCG | -0.1 kcal/mol
TGTGACACGTGGAGTG | -0.02 kcal/mol
GAGAGCACGTGGAGTA | -0.1 kcal/mol
CAGGGCACGTGGCGGA | -0.26 kcal/mol
TTCGACACGTGTAGGG | 0.17 kcal/mol
TCTGGCACGTGGCGTA | -0.24 kcal/mol
TTAAGCACGTGTAGGA | -0.04 kcal/mol
TGTGTCACGTGCGTCA | -0.08 kcal/mol
AAGGTCACGTGTGGAC | 0.02 kcal/mol
AGGTACACGTGGTGCG | -0.07 kcal/mol
CATGACACGTGTTTGT | 0 kcal/mol
GCGAACACGTGGTGGG | -0.1 kcal/mol
TTGTCCACGTGAGGTA | 0.15 kcal/mol
GTTGGCACGTGAGTGG | 0.18 kcal/mol
TGGATCACGTGGGTCA | -0.03 kcal/mol
GTGGTCACGTGACGGC | 0.24 kcal/mol
AATTACACGTGGGGTT | -0.03 kcal/mol
GGTTACACGTGATGTC | 0.39 kcal/mol
TGGCTCACGTGTTACG | 0.33 kcal/mol
TGTATCACGTGAGTGC | 0.29 kcal/mol
